# Test results from PubChem BioAssay AID1347165 (National Center for Advancing Translational Sciences (NCATS), 2019).
# The campaign covered roughly 220,000 compounds. About 5,700 (2.6%) were called active. The shares of active, inactive and inconclusive entries below differ from those in the screen. The call rests on the fitted dose curve; in most records, active means well fitted inhibition curve with a large enough effect; inconclusive means small, poorly fitted or top-dose-only effect; inactive means no such curve, though single readings can be large or run the other way. A potency beside an inconclusive call is a rough fit, not a confirmed value.
# Target: Lysine-specific demethylase 5B (Homo sapiens) (UniProt Q9UGL1)
# Assay: Primary screen for KDM5B Histone Demethylases FDH-coupled qHTS; further: nearly all actives have a fitted effect of over 70% in size; on activity change, negative = inhibition: 0% is about no effect
# Conditions: FDH-coupled NADH fluorescence (FDH is formaldehyde dehydrogenase); activity change, negative = inhibition: at 57.7 µM (top of the series) unless noted
# Method in brief: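 Compound dilutions met 200 nM (final) KDM5BΔAP for 10 min at room temperature before substrate addition. The substrate mix held 12.5 µM H3K4me3 with cofactors 25 µM α-ketoglutarate and 50 µM Fe²⁺. NADH signal gain over 30 min defined activity.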
# Potency means the concentration at half of the fitted maximal effect; tags describe the fitted curve by direction and shape.
# UniProt Q9UGL1, sequence (Q9UGL1 whole entry, looked up): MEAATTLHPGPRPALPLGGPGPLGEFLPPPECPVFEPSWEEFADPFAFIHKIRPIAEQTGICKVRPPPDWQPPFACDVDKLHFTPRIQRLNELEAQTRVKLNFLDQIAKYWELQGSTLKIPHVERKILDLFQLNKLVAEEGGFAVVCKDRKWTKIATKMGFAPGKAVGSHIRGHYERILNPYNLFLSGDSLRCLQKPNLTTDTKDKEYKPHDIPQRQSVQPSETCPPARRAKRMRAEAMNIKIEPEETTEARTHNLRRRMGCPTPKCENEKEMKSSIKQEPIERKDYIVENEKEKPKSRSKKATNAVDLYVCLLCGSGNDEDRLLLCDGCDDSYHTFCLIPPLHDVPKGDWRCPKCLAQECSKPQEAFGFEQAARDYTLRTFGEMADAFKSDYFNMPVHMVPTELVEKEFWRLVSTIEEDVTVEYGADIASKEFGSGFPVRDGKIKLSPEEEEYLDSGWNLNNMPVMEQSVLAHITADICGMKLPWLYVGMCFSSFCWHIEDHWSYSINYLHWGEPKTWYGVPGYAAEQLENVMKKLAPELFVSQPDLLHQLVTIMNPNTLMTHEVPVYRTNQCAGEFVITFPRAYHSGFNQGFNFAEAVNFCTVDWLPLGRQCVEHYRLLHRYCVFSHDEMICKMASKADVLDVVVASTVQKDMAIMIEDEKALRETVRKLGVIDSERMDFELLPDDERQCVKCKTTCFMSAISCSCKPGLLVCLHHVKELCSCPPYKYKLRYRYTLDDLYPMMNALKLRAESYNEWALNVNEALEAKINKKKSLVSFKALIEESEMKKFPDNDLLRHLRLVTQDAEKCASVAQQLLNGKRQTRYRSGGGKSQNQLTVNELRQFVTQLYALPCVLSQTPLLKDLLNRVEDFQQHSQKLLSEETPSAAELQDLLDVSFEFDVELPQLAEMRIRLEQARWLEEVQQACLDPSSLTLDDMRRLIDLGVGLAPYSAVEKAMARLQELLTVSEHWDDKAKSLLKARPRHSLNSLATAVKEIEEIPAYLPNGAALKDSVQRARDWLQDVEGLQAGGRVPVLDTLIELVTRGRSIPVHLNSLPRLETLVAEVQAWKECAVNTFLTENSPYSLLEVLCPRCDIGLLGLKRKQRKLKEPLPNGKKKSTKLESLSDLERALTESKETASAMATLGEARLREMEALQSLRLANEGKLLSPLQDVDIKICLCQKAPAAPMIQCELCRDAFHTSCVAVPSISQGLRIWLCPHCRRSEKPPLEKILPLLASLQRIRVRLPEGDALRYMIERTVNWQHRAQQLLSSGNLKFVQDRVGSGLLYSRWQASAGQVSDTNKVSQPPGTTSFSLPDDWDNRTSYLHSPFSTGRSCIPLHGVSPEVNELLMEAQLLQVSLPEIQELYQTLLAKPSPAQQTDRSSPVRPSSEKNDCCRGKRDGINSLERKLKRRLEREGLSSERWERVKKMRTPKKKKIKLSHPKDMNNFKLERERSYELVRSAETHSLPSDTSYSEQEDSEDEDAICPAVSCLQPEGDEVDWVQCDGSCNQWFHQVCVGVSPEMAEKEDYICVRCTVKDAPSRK
Compound,"activity change, negative = inhibition",Potency
O=C(CSc1nnc(-c2ccc(S(=O)(=O)N3CCCCCC3)cc2)o1)c1ccccc1,inactive: -10.5%,
COc1ccc(CCc2nc3nccc(-c4cccc(OC)c4)n3n2)cc1,,active: 17.8 µM
COC(=O)CNC(=O)N1CCC(c2nc(CCOc3ccc(F)cc3)no2)C1 (stereo not given),inactive: -17.5%,
O=C(Cn1nc2c(cc1=O)CCCCC2)NCC1(Cc2nnc3ccccn23)CCCCC1,inactive: 3.72%,
COCCN(Cc1c(C)nn(C)c1C)C(=O)[C@H]1CC[C@@H](N)C1,,"inconclusive: 2.82 µM [inhibitor, full curve]"
O=C(C1CN(S(=O)(=O)c2cccs2)CC12CCCCC2)N1CCCC1 (stereo not given),inactive: 18.9%,
COc1ccc(-c2cnc3[nH]cc(CC(=O)NC4CCOCC4)c3c2)cc1,,"inconclusive: 39.8 µM [inhibitor, partial curve, poor fit]"
O=S(=O)(NCCc1csc(-c2ccc(F)cc2)n1)c1ccc(F)cc1F,,"inconclusive: 17.8 µM [inhibitor, single point]"
O=C(NCC1CCOCC1)Nc1cccc(F)c1,inactive: 14.9%,
Cc1cc(=O)n(CC(=O)Nc2cccc(C(F)(F)F)c2)c(N2CCC(C)CC2)n1,inactive: -32%,
CCCOc1ccc(CNC(=O)CCn2ccn3nc4c(c3c2=O)CCCC4)cc1,,"inconclusive: 25.1 µM [inhibitor, single point]"
COCCNc1ncccc1-c1noc([C@@H]2CCCN2Cc2ccncc2)n1,,active: 28.2 µM
COC(=O)c1cc(-c2ccc(OC)cc2)nc2ccc(C)cc12,,"inconclusive: 1.78 µM [inhibitor, partial curve, poor fit]"
O=C1COc2ccc(N3CCOCC3)nc2CN1Cc1ccccc1F,,"inconclusive: 35.5 µM [inhibitor, partial curve, poor fit]"
COc1ccc(OC)c(-c2noc(Nc3cccc(F)c3)n2)c1,,"inconclusive: 17.8 µM [inhibitor, partial curve]"
O=C(CCCN1C(=O)NC2(CCCC2)C1=O)Nc1cnc2ccccc2c1,inactive: 15%,
Cc1ccc(C2c3cccn3CCN2S(=O)(=O)c2ccc([N+](=O)[O-])cc2)cc1 (stereo not given),,"inconclusive: 1.12 µM [inhibitor, full curve, poor fit]"
NCCC(=O)N1CCCC(N2CCN(Cc3ccc4c(c3)OCO4)CC2)C1 (stereo not given),inactive: -18%,
O=C(Nc1cccnc1)c1ccnc(-c2nnc3ccc(N4CCOCC4)nn23)c1,,"inconclusive: 31.6 µM [inhibitor, single point]"
O=C(c1ccncc1)N1CCCC(c2nnc3n2CCNC3)C1 (stereo not given),,"inconclusive: 50.1 µM [inhibitor, partial curve, poor fit]"
Cc1oc(-c2ccccc2F)nc1Cn1c(SCc2ccccc2F)nc2ccncc21,,"inconclusive: 15.8 µM [inhibitor, partial curve, poor fit]"
CC(C)N(C(=O)CSc1nc2c([nH]1)c(=O)n(C)c(=O)n2C)c1ccccc1,,"inconclusive: 25.1 µM [inhibitor, single point]"

Compound,"activity change, negative = inhibition",Potency
Cc1ccc(S(=O)(=O)n2ccc3c(OCCOCCNCc4ccc(F)cc4)cccc32)cc1,,"inconclusive: 14.1 µM [inhibitor, partial curve, poor fit]"
Cc1ccccc1OCc1nc2c3cnn(-c4ccccc4Br)c3ncn2n1,,"inconclusive: 3.55 µM [inhibitor, partial curve, poor fit]"
COC(=O)CNC(=O)Nc1c(-c2cccnc2)[nH]c2ccccc12,inactive: 4.01%,
CCCCCc1ccc(C(=O)CC)cc1,inactive: -8.92%,
COc1ccc(/C=C/c2nnc(NC(C)=O)s2)cc1,,"inconclusive: 39.8 µM [inhibitor, single point]"
N#C/C(=C/c1ccc(I)o1)c1nc2ccccc2[nH]1,inactive: -19.7%,
CC(=O)NC1CCN(c2nc(-c3cccnc3)nc3c2cnn3C)C1 (stereo not given),,"inconclusive: 28.2 µM [inhibitor, single point]"
CN1Cc2cccn2CC1CNC(=O)c1ccccc1F (stereo not given),,"inconclusive: 31.6 µM [inhibitor, single point]"
Cc1nn(C)c(C)c1CCC(=O)N1CCOCC1CC(=O)NC1CCCC1 (stereo not given),,"inconclusive: 14.1 µM [inhibitor, partial curve, poor fit]"
Cc1cccn2c(=O)c(C=O)c(NCc3ccccc3)nc12,,"inconclusive: 25.1 µM [inhibitor, partial curve, poor fit]"
COc1ccc(-c2cnc(Nc3cc(F)cc(N4CCOCC4)c3)c3c2CCO3)cn1,,"inconclusive: 31.6 µM [inhibitor, partial curve, poor fit]"
COc1ccc(CNC(=O)c2cc3c(=O)n(Cc4cccs4)ccc3nc2C)cc1,,"inconclusive: 35.5 µM [inhibitor, partial curve, poor fit]"
COc1cccc(NC(=O)C(Oc2ccc(S(=O)(=O)N3CCOCC3)cc2)c2ccccc2)c1 (stereo not given),,"inconclusive: 28.2 µM [inhibitor, single point]"
Cc1ccc(C)c(Oc2coc3cc(OC(=O)C(C)(C)C)ccc3c2=O)c1,,"inconclusive: 39.8 µM [inhibitor, single point]"
COc1ccc(CC(=O)NC2CCN(c3cc(-c4ccc(F)cc4)[nH]n3)C2)cc1 (stereo not given),,"inconclusive: 11.2 µM [inhibitor, partial curve, poor fit]"
CC(C)CC(=O)N[C@H](C)c1c(-c2ccc(F)cc2)noc1C(=O)O,,"inconclusive: 35.5 µM [inhibitor, partial curve, poor fit]"
Cc1ccc(NC(=O)N2CCCCCCNC(=O)CC2c2ccccc2)cc1C (stereo not given),inactive: -10.9%,
O=[S+]1([O-])NCC2(CCCN(Cc3ccc(Cl)cc3)C2)Oc2ncccc21 (stereo not given),,active: 79.4 µM
COC(=O)c1ccc(CSc2nc3c([nH]c4ccccc43)c(=O)n2-c2cccc(OC)c2)o1,,"inconclusive: 15.8 µM [inhibitor, partial curve, poor fit]"
CCc1ccc(NC(=O)C(C#N)=C2CCC(C(C)(C)C)CC2)cc1 (stereo not given),inactive: -1.75%,
COc1ccccc1CNC(=O)Cc1c(C)c2ccc(OC)c(C)c2oc1=O,,"inconclusive: 1.78 µM [inhibitor, full curve, poor fit]"
Cc1ncsc1CN1CCCCCCN(C)C(=O)[C@@H]2CCC[C@@H]21,,"inconclusive: 3.98 µM [inhibitor, full curve, poor fit]"

Compound,"activity change, negative = inhibition",Potency
Cc1noc(C)c1-c1cc2cc(CO)oc2c(NCCOc2ccccc2)n1,,"inconclusive: 28.2 µM [inhibitor, partial curve]"
Cc1cnc(C(=O)N2CCCC(CCc3cccc(F)c3)C2)cn1 (stereo not given),inactive: 19.2%,
CN(C)c1ccc(CNc2nc(-c3ccco3)nn2S(=O)(=O)c2ccc(Cl)cc2)cc1,,"inconclusive: 15.8 µM [inhibitor, partial curve, poor fit]"
COc1cc2c(cc1OC)C(CNC(=O)c1cccs1)N(C(=O)Nc1ccc(C)cc1)CC2 (stereo not given),,"inconclusive: 28.2 µM [inhibitor, partial curve, poor fit]"
Cc1ccc(C(=O)N2CCc3sc(C(=O)NCCN4CCCCCC4)cc3C2)cc1,,"inconclusive: 31.6 µM [inhibitor, single point]"
Cc1ccc(C)c(S(=O)(=O)Nc2nc3ccccc3nc2NCc2ccccc2)c1,,"inconclusive: 1.78 µM [inhibitor, full curve, poor fit]"
COc1ccccc1CNc1nc(-c2ccco2)nn1C(=O)c1ccccc1[N+](=O)[O-],,"inconclusive: 15.8 µM [inhibitor, partial curve, poor fit]"
COc1cccc(CNC(=O)Cn2cc3c(n2)-c2c(oc(C(=O)N4CCOCC4)c2C)CC3)c1,,"inconclusive: 14.1 µM [inhibitor, partial curve, poor fit]"
CCOC(=O)COc1ccc2c(C)c(-c3ccc(OC)c(OC)c3)c(=O)oc2c1,inactive: -5.95%,
O=C(c1ccc(-c2ncc3cnc(-c4ccccc4)cn23)cc1)N1CCS(=O)(=O)CC1,,active: 35.5 µM
COc1ccc(NC(=O)c2cc3ccccc3cc2O)cc1,,"inconclusive: 28.2 µM [inhibitor, partial curve, poor fit]"
Cc1nc(CC2CCN(C(=O)CCc3cc4n(n3)CCCNC4)CC2)no1,,"inconclusive: 31.6 µM [inhibitor, partial curve, poor fit]"
Cc1c(Cl)cccc1NC(=O)c1nn(C)c(=O)c2ccccc12,inactive: 5.5%,
O=C(CN1C(=O)C2CCCCN2c2ccc(C(=O)N3CCCC3)cc21)NCc1ccccc1 (stereo not given),,"inconclusive: 31.6 µM [inhibitor, single point]"
Cc1ccc(Nc2nnc(-c3ccc(C)c(S(=O)(=O)NC(C)(C)CO)c3)c3ccccc23)c(C)c1,,"inconclusive: 39.8 µM [inhibitor, single point]"
N#Cc1nc(-c2ccco2)oc1N1CCN(C(=O)c2ccc(Cl)cc2Cl)CC1,inactive: -7%,
CCc1cc(=O)oc2cc(C)cc(OCc3nn[nH]n3)c12,,"inconclusive: 25.1 µM [inhibitor, partial curve, poor fit]"
COCCCNC(=O)Cn1c(=O)n(-c2cccc(C)c2)c(=O)c2c3c(sc21)CN(C(C)=O)CC3,,"inconclusive: 22.4 µM [inhibitor, single point]"
COC(=O)c1cnc(Nc2cccc(C(F)(F)F)c2)c([N+](=O)[O-])c1,inactive: 27.8%,
CCCn1cc(S(=O)(=O)c2cccc(Cl)c2)c(=O)c2cc(F)c(N3CCN(CC)CC3)cc21,,"inconclusive: 7.08 µM [inhibitor, partial curve, poor fit]"
CCOc1ccc2nc(NC3=NC(CC(=O)O)C(=O)N3)nc(C)c2c1 (stereo not given),,"inconclusive: 25.1 µM [inhibitor, partial curve, poor fit]"
